In all, about 33,000 sequences were measured (“E-score (dimensionless, -0.5 to 0.5)”: median about -0.058, highest 2% from about 0.35 on). This is one part of the list.
System: MvaT
Test: PBM 8-mer E-score (mean of HK and ME arrays) (E-score (dimensionless, -0.5 to 0.5)); higher = stronger relative binding preference; most listed sequences are background and not binding sites
Method in brief: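 Full-length P. aeruginosa MvaT, with glutathione S-transferase fused to its N-terminus (cloned into pTH6838 by isothermal assembly), was tested by protein binding microarray using a previously described protocol. Two universal double-stranded 60-mer arrays (ME and HK) were used, each with a constant 25-mer primer region and a variable 35-mer region covering all 8-mers. The rank-based 8-mer E-score (-0.5 to 0.5) is the mean of the two arrays, parsed with a custom Python script.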

Sequence	PBM 8-mer E-score
CCTCCGCG	-0.122
AGTTGCCA	0.0887
ACCATCCC	-0.125
CTTCCCTA	0.0204
ACTCCAAA	0.00956
CTGGTAAC	-0.0531
CCTGTCGA	-0.164
CACAGGGG	-0.21
CACTGTGC	-0.177
AATGACGG	0.0872
AAAATGAG	0.124
TGCGAACA	-0.00172
GGGGAAGA	-0.18
ATCGCTAG	-0.0949
AGCCGCTC	-0.265
ATATGCGG	0.0857
CTCCTCGC	-0.267
AGATCCCT	-0.128
AACTCTAG	-0.00057
AGGTCGGC	-0.289
CAAGTACC	-0.0373
ACGGAGTG	-0.14
AGCGCCAT	-0.212
ACCCGTGA	-0.204
CACCTTCA	0.000508

Sequence	PBM 8-mer E-score
AGCCGCTG	-0.12
AAGGAGGT	-0.297
GGGACCCC	-0.391
CTGCTAAC	0.04
ACCACACC	-0.00167
GTGGCCGA	-0.152
AAACTGAG	0.0492
AACGATCA	-0.0826
CAGTTAGC	0.0275
CACTCAGA	-0.0498
GTGGATTA	0.119
AGCAGGAC	-0.132
CCCCTGAC	-0.278
AGTATTTC	0.207
GATTCTCC	0.0171
TATGTGGA	0.241
ATGACCGG	-0.132
ACTCGAGC	-0.114
TAGGAGAA	0.124
AAATCGGT	0.0576
AAACTCGT	0.16
CCCTTCAA	-0.141
ACAGGGGC	-0.246
AAGACAGT	0.11
AGTAGAAG	-0.0262

Sequence	PBM 8-mer E-score
CAGTGGTA	-0.0852
CCCCGAAC	-0.19
AGCTAGGA	-0.0988
AACAGACT	0.0447
GCACCCAC	-0.0267
AATCTGGG	-0.122
ATAAGCGG	0.0871
AAGGGGAA	0.0209
CCCGTACC	-0.216
ACTAGGAT	0.046
GCATACGC	-0.0631
AGTCAAAT	0.0851
ATGATAGG	-0.0693
AGGGTCCA	-0.285
AGCAGTAA	0.0333
TTATTCAA	0.244
AGGGGCGA	-0.155
GTGGTTTA	0.197
CAGAGCGA	-0.261
CCTCGCAA	-0.0928
GCGCGCCA	-0.136
ACATCTAA	0.241
AACCCTCG	-0.248
CTCCCGCC	-0.271
AGCAGAGG	-0.2

Sequence	PBM 8-mer E-score
ACGTTCTC	-0.0618
CGACCCAA	-0.0201
GAATTGTC	0.0347
ATCTGAGG	-0.0962
GGGGAACA	-0.0436
CGCTTCAC	-0.161
AGAGTAGG	-0.179
ACTCTTGC	0.0633
ATACCCGA	-0.0266
ACTGTGAA	0.0996
CACTTGCA	-0.05
CAAGGCGA	-0.231
GGTGAGAA	-0.16
ACTCGATC	-0.132
CAGTTACG	0.0696
TCCAGAAA	-0.00806
ATGCTATC	-0.049
CTAAGTGA	-0.0925
CTCCGGAG	-0.311
CACCCTTC	-0.27
TTACATAA	0.317
TCCGCGGA	-0.0883
CAACAAAA	0.198
ACATTGAG	-0.0188
GACTTAGA	0.0453

Sequence	PBM 8-mer E-score
CCCGTAAC	-0.0509
TGAGGCAA	-0.0518
AGGAAACG	-0.0786
ACGGTCAG	-0.285
ACTCTATG	-0.105
GCAGCGCA	-0.144
CTTTATCA	0.182
CAAACAAG	0.053
GCATCTCA	-0.157
ATGCATCA	0.0359
AAACGCCC	-0.174
CACAACTC	0.122
ATACAAGG	0.0425
AGCCAGCG	-0.207
CGGAGTGA	-0.236
ACTCTCCT	-0.122
CCTAGGCC	-0.164
CAAAGGGG	-0.115
AGATTCAG	0.027
GCCGACGC	-0.271
AATGTCAG	-0.0492
CAAAGATC	-0.0152
ACTCTCTA	0.0484
GACGACAC	-0.134
CAGATGAA	-0.0605

Sequence	PBM 8-mer E-score
AACAGCCG	-0.149
ACCGGCAA	-0.0705
AGTTTACC	0.154
ACAGCATA	0.147
ATGTTTTC	0.29
ATCAAATA	0.341
GATGTGCA	-0.168
ATGGTTGC	-0.0762
ATGACGTA	-0.0574
CAAGAACG	-0.172
CCTTGTTC	-0.189
CACCCAGA	-0.158
CATTGGCG	-0.278
ATAGTGAC	-0.00907
ATCCTAAT	0.0737
ACCCAGCA	-0.147
ATCATCTA	0.0265
ATTCTAGG	0.127
AGGAACAG	-0.0974
CTACAGAC	-0.11
GCAGCGAA	-0.0745
AGGGACGG	-0.283
GGAGACAC	-0.0363
CACTATAC	0.17
AATGTGTA	0.313

Sequence	PBM 8-mer E-score
TATCGCAA	0.0456
CAGAAGCC	-0.184
GAGTGAAC	-0.102
CGCCGCGC	-0.0801
CGCTACAC	-0.201
ACTTAACA	0.227
AGCTCACG	-0.226
ACAAAGCA	0.0758
ATCGTAAT	0.231
CCATTCAA	-0.00735
AGCTAATG	-0.0227
CGAGACAA	-0.0174
ATACCTGC	0.0241
ACGTTATG	0.0994
CATGGCTA	-0.152
GCTTATTA	0.254
TCGCCTAA	0.00604
CCTAACAG	-0.0905
CGCAGTAC	-0.208
GACGGGCA	-0.125
AACTCGAA	0.0759
AGCTCATC	-0.199
GATGCAAC	0.0428
CGTTCAAC	-0.0408
CTTGCTGC	-0.206

Sequence	PBM 8-mer E-score
ACACGAAG	-0.146
AGGAAAGG	-0.157
ACCGTGAG	-0.21
CTAGATCA	-0.0517
TTAAGGAA	0.158
CAGACTCA	-0.147
GTACACCA	0.119
ACTCGCCG	-0.141
CATCCCGC	-0.145
GGACGATA	0.0116
CGTCGCGC	-0.104
ATACGAGG	-0.0558
AGCCGCGA	-0.146
ATGAGCGC	-0.128
AAAGATTA	0.25
CGCTCTTC	-0.0701
GATTCCGA	-0.155
AAACTAGT	0.271
GGACAGAA	-0.222
CTACATAG	0.0412
CTGATCCC	-0.264
ACCACGAC	-0.0669
GCTTGCGA	-0.137
ATTCATTG	0.041
AAGCTCAC	-0.0796

Sequence	PBM 8-mer E-score
AGATGGCT	-0.175
CCCCTCGG	-0.309
ATCACATG	0.00336
ACAACGGA	0.0386
ATAAGTGA	0.131
AGCTGCCC	-0.276
AGCGTAGA	0.089
AATCAGGA	0.0421
GCCAATAC	0.0871
GACCCGCC	-0.0677
CTTTGAGA	0.104
ATTCCGCA	0.02
AACCCATG	-0.0156
AAATGTTC	0.268
CTAAAAGC	0.0279
CCCCCTTC	-0.313
CAACATTC	0.0806
TGCCACAA	-0.0593
CGTTACGC	-0.179
TAACGGAA	0.127
CACTTGGG	-0.254
ACCCGGGT	-0.308
AGCGCTTC	-0.154
CCCGAACG	-0.147
CAAAATGG	-0.00562

Sequence	PBM 8-mer E-score
ATGGCAAG	-0.0973
AGTATCAG	0.0345
AAGAGCAT	0.0169
ACATGGTG	-0.175
ACGGGACC	-0.144
CTCGAGGA	-0.0766
CCGGCAAA	-0.0766
AGCACAAT	0.085
ACACCATC	0.0357
GTAATAAA	0.333
GTCAGTTA	0.143
CATGTGGG	-0.189
AACGGTTC	0.0992
CACAGTGA	-0.0186
ACCTGTTC	-0.177
AAAGACAA	0.166
ACCGACGT	-0.223
ATCTACTG	0.0718
GCACGTTA	0.0767
ACCATAAT	0.243
CCCAGGCG	-0.27
CTCTTCTC	-0.255
CATTCACA	0.114
ACTTGCTC	0.0161
CATGTTTA	0.301

Sequence	PBM 8-mer E-score
TCTTGCCA	-0.124
TCAGGGAA	-0.121
GCGCCATA	-0.148
AGTTTGCA	0.21
AAATGCAG	0.0248
CCGATCCC	-0.25
CGTCGTAA	0.0228
CACAGATC	-0.0583
AATGGGTC	-0.0317
AAATTCTG	0.0652
AAGATTGG	0.154
GGCACGAC	-0.198
AGAGACTA	0.0381
CACAGCTC	-0.105
CAACTTCC	0.0684
ACCTAGTG	-0.0746
GAAATGAC	-0.0603
AATTTTGC	0.288
AAGCCCTG	-0.301
AATATGCG	0.209
CCACTATA	0.172
GTTTCCGA	0.0421
CCCATTCG	-0.0815
GCCGGAGC	-0.245
GCAGGACC	-0.179

Sequence	PBM 8-mer E-score
CCATATGC	0.0291
CAGCATCG	-0.0938
AGGGATTC	-0.0322
CGCTGGCA	-0.0979
CCTATTAG	0.0715
CCCCATAA	-0.152
ACGGCCGA	-0.134
CAGCGTCG	-0.155
ATGTAAGG	-0.00135
CCAGAGCC	-0.292
CGCTTCTC	-0.135
GACTAATA	0.297
GGAACTGA	-0.123
ACGGATAG	-0.12
CAAACCCG	-0.168
AGTTAGCC	0.0865
GATCTATA	0.158
ACCTGTCC	-0.182
CTGGCCAC	-0.182
GATTTGTA	0.205
GTTGTTGA	0.124
CGCTTTAG	-0.0599
TAGAAATA	0.294
AGTGAACA	0.0076
TGGTCGAA	-0.147

Sequence	PBM 8-mer E-score
AGAATGCC	-0.154
CTTTCGCA	-0.127
ATCTAAAT	0.221
CTTCGGTC	-0.113
CGCCGGAG	-0.221
AACTAAAC	0.282
GCCATCGA	-0.134
CAGGAGGC	-0.281
CGGTCGTA	-0.0948
GCAAAAGC	-0.132
GGGGTCCA	-0.219
ACGAGGCA	-0.228
CAAGGTAG	-0.102
CACGAGGC	-0.18
CGGCAAAA	0.0672
GCCAACCC	-0.121
GAGGTTAA	0.0368
ATTTTATC	0.202
AGAGGCCC	-0.154
AGCGATTC	0.0202
ACTCCTTG	-0.131
AAATACGA	0.108
ACGCTACC	-0.112
CTGCTACC	-0.141
CCATAGTA	0.0348

Sequence	PBM 8-mer E-score
AGTGAACG	-0.0531
ATCGTGAC	-0.219
CAATTACC	0.192
ATTCTCGA	0.11
GCTTAGTA	0.144
ACAGCTAT	0.0504
CCGTCCTA	-0.129
CAGTGACG	-0.22
GCTGTTAA	0.162
ACGCGTTG	-0.0108
CCAGTTCG	-0.127
AGGAATCC	-0.197
CTTACGCC	-0.0391
ATCGGGTA	-0.0863
TACATCGA	0.11
ACGCTGAC	-0.0652
GTACCAAC	-0.0687
ATCGAAAC	0.0275
GCCTAAAA	-0.0431
